Binding signal data for 14 molecules are collected here from article PMC12136788.

The list shows a part of the results.

The labels stand for the following.
T1: UNK ZnF1-3 (human, UniProt Q9C0B0 31-174)
T1 sequence: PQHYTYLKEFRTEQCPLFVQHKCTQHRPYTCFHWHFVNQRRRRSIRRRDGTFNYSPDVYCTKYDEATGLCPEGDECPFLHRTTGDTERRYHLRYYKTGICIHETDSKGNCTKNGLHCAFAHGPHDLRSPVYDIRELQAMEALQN

B1: chr13:14287670:14287671:+_ENSMUSG00000039219_ENSMUST00000039538|mus_mus|motif|central (ssRNA)
RNA: GGGAGUUCUACAGUCCGACGAUCAGCAGCACUUUCUCUCUCUUUCUUCUUUAAACGUUUUCUCCUCCUAUCAAUGGAAGCGGCUUCAGAUUUUAAAGACAGAUAAUGCUUUCUGAUUUCUUGCAAUUUUUCUUGAAGAAUUGACAACAGAGGAUUGAGCAUCA
B2: chr2:163839828:163839829:+_ENSMUSG00000018326_ENSMUST00000018470|mus_hu|motif|central (ssRNA)
RNA: GGGAGUUCUACAGUCCGACGAUCGGAGUUCGACACAGUGGUUUGUUUGUUGUCUCCAGAUGCCACUUCAGAAAGAUACCGGAAAUAAUCUCCUUUCAUUUUCAAGUAGAACACCUUACUUUCUGGUUGUGUAGCAUUGGGAAUCAACAGAGGAUUGAGCAUCA
B3: 172339047_172339167_3373_3pUTR_ENSG00000115827_ENST00000375255|human|control|control (ssRNA)
RNA: GGGAGUUCUACAGUCCGACGAUCACUGAAGUCUUAAGACAUCCUAUUCUGAAACACUCUUGGAAAUGGAGAAUGAACACUCUACUUUUACACAGCAUUGCAGCUGCUUUGAAACUCACACAACAUUGGUUUCUUUCUUUAGUACAACAGAGGAUUGAGCAUCA
B4: chr4:104905227:104905228:+_ENSMUSG00000028517_ENSMUST00000064139|mus_mus|FALSE|FALSE (ssRNA)
RNA: GGGAGUUCUACAGUCCGACGAUCAACGGAAUCUUACAAAAAUACUGACAAUUUAAUGUUUUUAUACAGUUUUUUUUCUCUAGUUGCAGUUAUUUCAUUGUAAAACAAUGGCUACCACAGAACUAUAUCUUUAGUUGAGAUUAACAACAGAGGAUUGAGCAUCA
B5: chr8:95500983:95500984:-_ENSG00000164944_ENST00000437199|hu_hu|hu_hu_hu_mus_True|48_78 (ssRNA)
RNA: GGGAGUUCUACAGUCCGACGAUCAGAACACAUCUAUCGAGUAAAGGACCGUACAUGGACGACCUCUCCACUGCCUCCACUAACAAAACUUUCCUCUGAGCCUCCACUGCCGCUAUUUGUACUAGCCCAGGACGGUCCCAGGCCCAACAGAGGAUUGAGCAUCA
B6: chr3:75345182:75345183:-_ENSMUSG00000027835_ENSMUST00000161137|mus_mus|FALSE|FALSE (ssRNA)
RNA: GGGAGUUCUACAGUCCGACGAUCAAGUGGUCUCAGCUUCAUUCUUCAUCUCUUCCAUUGUCAUCCUCAUUCAAAAGCCAACUACAGUAGAAAAAGCAAUGCUAAAAUGCAGAGGAAUCUUCAUUCACUGCCGAAUUUCUUCCCCAACAGAGGAUUGAGCAUCA
B7: 139818580_139821097_150_3pUTR_ENSMUSG00000045438_ENSMUST00000049630|mouse|control|control (ssRNA)
RNA: GGGAGUUCUACAGUCCGACGAUCUGUCACGGAGACACCUCAUGAAUUUUUCUUUAAAGCUUUUACAUUCACCGAAGUGGUCCAGCGGGAAGCUGCCUUUGUCUGGGGGCCGCGGCUGGAAGCUUUUGGUCCCGAAGUUCAUUGCAACAGAGGAUUGAGCAUCA
B8: chr6:67234108:67234109:+_ENSMUSG00000036371_ENSMUST00000042990|mus_mus|FALSE|FALSE (ssRNA)
RNA: GGGAGUUCUACAGUCCGACGAUCCUACCAAUACAUUUCUAAAUACAAAACUGACUAACAUAUUUUGUUACUUCUGUGUAGCUAGAGAAGUUCGUUUUCAAAACAGAUAAAAUUCAGUCUUUAGGUGUGAAUGGUAUGAAUGACCAACAGAGGAUUGAGCAUCA
B9: chr18:52893488:52893489:-_ENSG00000196628_ENST00000354452|hu_hu|hu_hu_hu_mus_True|1_48 (ssRNA)
RNA: GGGAGUUCUACAGUCCGACGAUCUAUUUAGACCAUUUCCGCGGAGUUAUGGCAUUUACUCAGUGCUGAUAGGUGGAAAAACUACUUGAACAGGGAUUUUUUUUUUCCUUAAUACAUGCCAAGAUUGUGUGGCUGUCAAAAAUACAACAGAGGAUUGAGCAUCA
B10: chr12:45383586:45383587:+_ENSMUSG00000036257_ENSMUST00000043082|mus_mus|motif|central (ssRNA)
RNA: GGGAGUUCUACAGUCCGACGAUCAAAUAUAUAUAUCUAGAGUCAAAUUAAUAGACAUAACUUAAAAAUCAUUUAUUUUCGGUGUGACAUUCUCUCAUUCCAUUCCUGAAUGCUUCAUUUAGGAAAUUCCAUAAUUCAUGGUCUCAACAGAGGAUUGAGCAUCA
B11: chrX:119680447:119680448:-_ENSG00000158290_ENST00000371322|hu_hu|FALSE|FALSE (ssRNA)
RNA: GGGAGUUCUACAGUCCGACGAUCAAACAAAAAAAUGCUCCUGAUCAUGAUCAUUUGUCUGCAAUGGUUUUGCCAGCAUCUAUCAAUCUUCUUUAAAAAAAGAACGCUAUCCAAUGAAUCCUCUCUGAAUUGAUGAAUCUGUGCCAACAGAGGAUUGAGCAUCA
B12: chr11:251552:251553:+_ENSG00000185627_ENST00000382671|hu_hu|FALSE|FALSE (ssRNA)
RNA: GGGAGUUCUACAGUCCGACGAUCUAGCACUUUUGGCAAUUUCUUCAAAAGUGAGUUGUCUGUGAUUGGCAGGUCGUGUGAAAGUCAUCUCCAUGAGGCACAACAACUGAAUUUUCCUCAGAAGCUGGGCUUCAUUAGCUGCUACAACAGAGGAUUGAGCAUCA
B13: chr14:22594296:22594297:+_ENSMUSG00000021770_ENSMUST00000119430|mus_hu|FALSE|FALSE (ssRNA)
RNA: GGGAGUUCUACAGUCCGACGAUCAUCAUAUUCAGUCAAUGUUAGCAAUGUGAUUCCAUCAAGUCGGUGCUUAUUGCAUAAAAUGUCCACAUAUUCAAAAAAGCCUUCAUCCUUCAGCCACACAGCUACAUGCUUGGUAGUCCACAACAGAGGAUUGAGCAUCA
B14: chr2:47388980:47388981:-_ENSG00000143933_ENST00000272298|hu_hu|FALSE|FALSE (ssRNA)
RNA: GGGAGUUCUACAGUCCGACGAUCUUCAUCUGUUAACUUCUCUCCAAGGUUUGUCAUCACAUGGCGAAGUUCUGCAGCACUAAUAUAGCCAUUGCCAUCCUUAUCAAACACACGGAAUGCUUCUCUAAUUUCUUCUUCACUGUCCAACAGAGGAUUGAGCAUCA

In the assay the target is T1, UNK ZnF1-3. Put plainly: nsRBNS (natural sequence RNA bind-n-seq); RBNS binding buffer (assumed for nsRBNS): 25 mM Tris pH 7.5, 150 mM KCl, 3 mM MgCl2, 0.01% Triton X-100, 500 ug/ml BSA, 20 U/ml SUPERase-In, 4 C; UNK is unkempt and MSI1 is Musashi-1; names of the RNAs are library labels; protein concentration not given here; high values mean tight binding.
In the case of B1, the binding signal amounted to 0.899 enrichment R.
For the molecule B2, the binding signal was 0.312 enrichment R.
Under B3 stands 0.697 enrichment R; under B4, 0.412 enrichment R; under B5, 1.51 enrichment R.
Under B6 stands 1.31 enrichment R; under B7, 0.619 enrichment R.
In the case of B8 it was 1.29 enrichment R; in that of B9, 0.963 enrichment R; in that of B10, 1.07 enrichment R.
Regarding B11, the binding signal was determined as 1.21 enrichment R.
Under B12 stands 0.614 enrichment R.
Molecule B13 yielded a binding signal of 1 enrichment R.
Under B14 stands 0.842 enrichment R.
